# In article PMC11995724, “Antibiotic target discovery by integrated phenotypic and activity-based profiling of electrophilic fragments” (Cell chemical biology, 2025):
# Screen size: about 3,200 compounds; about 75 (2%) showed an effect of 50% or more. The list shows a part of the results.
# Test system: T1, S. aureus MSSA476
# T1 construct: MSSA476
# Set-up: species or system S. aureus MSSA476 (TSB) or V. cholerae SAD30 (LB); 384-well bacterial growth screen at 25 uM, OD600 relative to DMSO control
# Conditions: relative growth, OD600, TSB; 25 µM; inhibitor
row,Structure (SMILES),% of control remaining
1,"CC(Cl)C(=O)N(C)C1CCCc2c1cnn2C (stereo not shown) [6-L16, 2-chloro-N-methyl-N-(1-methyl-4,5,6,7-tetrahydro-1H-indazol-4-yl)propanamide]",98%
2,"COc1cc(Cl)c(C)cc1NC(=O)C(C#N)=Cc1c(C)n[nH]c1C [8-K10, N-(4-chloro-2-methoxy-5-methylphenyl)-2-cyano-3-(3,5-dimethyl-1H-pyrazol-4-yl)prop-2-enamide]",88.6307%
3,"N#Cc1ccc2c(c1)CCN2C(=O)CCl [5-N09, 1-(2-chloroacetyl)-2,3-dihydro-1H-indole-5-carbonitrile]",100.911%
4,"CC(Cl)C(=O)NCc1nnc(C2CCC2)n1C (stereo not shown) [7-A10, 2-chloro-N-[(5-cyclobutyl-4-methyl-4H-1,2,4-triazol-3-yl)methyl]propanamide]",81.3187%
5,"C=CC(=O)NC(CO)c1ccnn1C (stereo not shown) [2-D17, N-[2-hydroxy-1-(1-methyl-1H-pyrazol-5-yl)ethyl]prop-2-enamide]",106.876%
6,"C=CC(=O)Nc1ccc(C(=O)C(F)F)cc1 [1-M20, N-[4-(2,2-difluoroacetyl)phenyl]prop-2-enamide]",114.286%
7,"C=CC(=O)N1CCC(C(=O)Nc2nnc(CC)s2)CC1 [2-M10, N-(5-ethyl-1,3,4-thiadiazol-2-yl)-1-(prop-2-enoyl)piperidine-4-carboxamide]",93.6466%
8,"O=C(CCl)Cc1c(F)cccc1F [10-O15, 1-chloro-3-(2,6-difluorophenyl)propan-2-one]",138.438%
9,"C=CC(=O)N1CCCC(O)(CC(N)=O)C1 (stereo not shown) [3-K14, 2-[3-hydroxy-1-(prop-2-enoyl)piperidin-3-yl]acetamide]",98.9116%
10,"O=S(=O)(c1cc(Cl)cc(Cl)c1)N1CCSSCC1 [10-J09, 5-(3,5-dichlorobenzenesulfonyl)-1,2,5-dithiazepane]",110.313%
11,"O=C(Nc1cc(F)ccc1F)N1CCSSCC1 [10-H11, N-(2,5-difluorophenyl)-1,2,5-dithiazepane-5-carboxamide]",89.0625%
12,"Cc1ncsc1C=C(C#N)C(=O)NCCc1ccccc1 [9-H06, 2-cyano-3-(4-methyl-1,3-thiazol-5-yl)-N-(2-phenylethyl)prop-2-enamide]",92.5843%
13,"N#CC(=Cc1ccc(C#N)cc1)C(=O)Nc1ccccc1Cl [9-O17, N-(2-chlorophenyl)-2-cyano-3-(4-cyanophenyl)prop-2-enamide]",104.569%
